Measured values from the supplement of paper PMC10369915.
The other results are listed elsewhere or left out. Rule as the data show it: active = 3.2 or more and inactive = the rest. Most of these values are background signal.
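Also: displayed peptides selected on beads carrying the immobilized SH2 domain, with library peptides lacking any tyrosine serving as negative controls.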

What follows are binders tested against SHP2 C-SH2 domain E139D (assay: enrichment score (SH2-bound / input frequency) (ratio); bacterial display of known human phosphotyrosine sites (pTyr-Var adds point mutants) read by sequencing; higher = stronger binding; tyrosines were phosphorylated by kinases first). Settings: peptide library: pTyr-Var.
For VPLLEYFWDIF [CDAN1_Y712_R714W_YF], the enrichment score was active: 5.01. SHLSAYPALEG [CD5_Y465] was tested, and the enrichment score was inactive: 0.753. For VPLLEYYRDIF [CDAN1_Y712], the enrichment score was inactive: 1.81. In the case of NELTYYCYKKD [CD59_Y87_C89Y], the enrichment score is reported as inactive: 0.716. In the case of RDHYGYRQSVT [CD55_Y245], the enrichment score is reported as inactive: 0.807. TVSSDYLHPQY [CCPG1_Y569_F566S] was tested, and the enrichment score was inactive: 0.727. For PEYVVYKPQME [CCRL2_Y170_F167Y], the enrichment score was inactive: 1.27. For EFGRRYGFSRQ [CCDC93_Y209_YF], the enrichment score was inactive: 0.63. With RVEDAYILTCN [CCT6A_Y229] the enrichment score was inactive: 0.993. RKQQLYTAMEE [CCDC39_Y593] was tested, and the enrichment score was inactive: 0.684. With QMEKICTQQIQ [CCNB1IP1_Y125_Y125C] the enrichment score was inactive: 0.986. In the case of HTVEDYQAIVD [CCT7_Y263], the enrichment score is reported as inactive: 0.585. For MKSIKYMDKEI [CCDC60_Y41], the enrichment score was inactive: 0.953. With ALETLYKKAVK [CC2D2A_Y381_E376A] the enrichment score was inactive: 0.846. In the case of EQFELHCEMGS [CBL_Y371_Y371H_YF], the enrichment score is reported as inactive: 1.04. In the case of EFGRRYGFSCQ [CCDC93_Y209_R213C_YF], the enrichment score is reported as inactive: 0.578. With KKRSVYLKVLF [CC2D2A_Y683] the enrichment score was inactive: 0.586. In the case of VPLLEYYWDIF [CDAN1_Y712_R714W], the enrichment score is reported as inactive: 2.97.

The binders below were run against SHP2 C-SH2 domain wild-type in the same assay as above. Settings: peptide library: pTyr-Var.
VPLLEYFWDIF [CDAN1_Y712_R714W_YF] was tested, and the enrichment score was active: 4.51. In the case of SHLSAYPALEG [CD5_Y465], the enrichment score is reported as inactive: 0.711. In the case of VPLLEYYRDIF [CDAN1_Y712], the enrichment score is reported as inactive: 1.66. In the case of NELTYYCYKKD [CD59_Y87_C89Y], the enrichment score is reported as inactive: 0.994. With RDHYGYRQSVT [CD55_Y245] the enrichment score was inactive: 0.587. In the case of TVSSDYLHPQY [CCPG1_Y569_F566S], the enrichment score is reported as inactive: 0.594. With PEYVVYKPQME [CCRL2_Y170_F167Y] the enrichment score was inactive: 0.779. For EFGRRYGFSRQ [CCDC93_Y209_YF], the enrichment score was inactive: 0.308. RVEDAYILTCN [CCT6A_Y229] was tested, and the enrichment score was inactive: 0.813. In the case of RKQQLYTAMEE [CCDC39_Y593], the enrichment score is reported as inactive: 0.779. With QMEKICTQQIQ [CCNB1IP1_Y125_Y125C] the enrichment score was inactive: 1.06. With HTVEDYQAIVD [CCT7_Y263] the enrichment score was inactive: 0.776. MKSIKYMDKEI [CCDC60_Y41] was tested, and the enrichment score was inactive: 1.08. ALETLYKKAVK [CC2D2A_Y381_E376A] was tested, and the enrichment score was inactive: 0.545. EQFELHCEMGS [CBL_Y371_Y371H_YF] was tested, and the enrichment score was inactive: 0.843. With EFGRRYGFSCQ [CCDC93_Y209_R213C_YF] the enrichment score was inactive: 0.628. With KKRSVYLKVLF [CC2D2A_Y683] the enrichment score was inactive: 0.591. With VPLLEYYWDIF [CDAN1_Y712_R714W] the enrichment score was inactive: 2.61.

Each binder was assayed against SHP2 N-SH2 domain L43F in the same assay as above. Settings: peptide library: pTyr-Var.
For VPLLEYFWDIF [CDAN1_Y712_R714W_YF], the enrichment score was active: 4.98. SHLSAYPALEG [CD5_Y465] was tested, and the enrichment score was inactive: 0.715. For VPLLEYYRDIF [CDAN1_Y712], the enrichment score was inactive: 1.68. NELTYYCYKKD [CD59_Y87_C89Y] was tested, and the enrichment score was inactive: 0.727. RDHYGYRQSVT [CD55_Y245] was tested, and the enrichment score was inactive: 0.675. With TVSSDYLHPQY [CCPG1_Y569_F566S] the enrichment score was inactive: 0.975. PEYVVYKPQME [CCRL2_Y170_F167Y] was tested, and the enrichment score was inactive: 1.1. For EFGRRYGFSRQ [CCDC93_Y209_YF], the enrichment score was inactive: 0.327. For RVEDAYILTCN [CCT6A_Y229], the enrichment score was inactive: 1.05. In the case of RKQQLYTAMEE [CCDC39_Y593], the enrichment score is reported as inactive: 0.704. QMEKICTQQIQ [CCNB1IP1_Y125_Y125C] was tested, and the enrichment score was inactive: 1.06. For HTVEDYQAIVD [CCT7_Y263], the enrichment score was inactive: 0.791. MKSIKYMDKEI [CCDC60_Y41] was tested, and the enrichment score was inactive: 0.639. For ALETLYKKAVK [CC2D2A_Y381_E376A], the enrichment score was inactive: 0.724. With EQFELHCEMGS [CBL_Y371_Y371H_YF] the enrichment score was inactive: 1. EFGRRYGFSCQ [CCDC93_Y209_R213C_YF] was tested, and the enrichment score was inactive: 0.675. With KKRSVYLKVLF [CC2D2A_Y683] the enrichment score was inactive: 0.656. VPLLEYYWDIF [CDAN1_Y712_R714W] was tested, and the enrichment score was inactive: 3.01.

Each binder was assayed against SHP2 N-SH2 domain T42A in the same assay as above. Settings: peptide library: pTyr-Var.
VPLLEYFWDIF [CDAN1_Y712_R714W_YF] was tested, and the enrichment score was active: 3.74. In the case of SHLSAYPALEG [CD5_Y465], the enrichment score is reported as inactive: 0.658. In the case of VPLLEYYRDIF [CDAN1_Y712], the enrichment score is reported as inactive: 1.58. For NELTYYCYKKD [CD59_Y87_C89Y], the enrichment score was inactive: 0.794. In the case of RDHYGYRQSVT [CD55_Y245], the enrichment score is reported as inactive: 0.553. In the case of TVSSDYLHPQY [CCPG1_Y569_F566S], the enrichment score is reported as inactive: 0.604. PEYVVYKPQME [CCRL2_Y170_F167Y] was tested, and the enrichment score was inactive: 1.18. EFGRRYGFSRQ [CCDC93_Y209_YF] was tested, and the enrichment score was inactive: 0.49. With RVEDAYILTCN [CCT6A_Y229] the enrichment score was inactive: 0.722. For RKQQLYTAMEE [CCDC39_Y593], the enrichment score was inactive: 0.741. With QMEKICTQQIQ [CCNB1IP1_Y125_Y125C] the enrichment score was inactive: 0.895. In the case of HTVEDYQAIVD [CCT7_Y263], the enrichment score is reported as inactive: 0.694. In the case of MKSIKYMDKEI [CCDC60_Y41], the enrichment score is reported as inactive: 0.666. ALETLYKKAVK [CC2D2A_Y381_E376A] was tested, and the enrichment score was inactive: 0.559. With EQFELHCEMGS [CBL_Y371_Y371H_YF] the enrichment score was inactive: 0.883. For EFGRRYGFSCQ [CCDC93_Y209_R213C_YF], the enrichment score was inactive: 0.682. With KKRSVYLKVLF [CC2D2A_Y683] the enrichment score was inactive: 0.929. VPLLEYYWDIF [CDAN1_Y712_R714W] was tested, and the enrichment score was inactive: 2.58.

Each binder was assayed against SHP2 N-SH2 domain T52S in the same assay as above. Settings: peptide library: pTyr-Var.
With VPLLEYFWDIF [CDAN1_Y712_R714W_YF] the enrichment score was active: 4.67. For SHLSAYPALEG [CD5_Y465], the enrichment score was inactive: 0.672. In the case of VPLLEYYRDIF [CDAN1_Y712], the enrichment score is reported as inactive: 1.93. With NELTYYCYKKD [CD59_Y87_C89Y] the enrichment score was inactive: 0.908. With RDHYGYRQSVT [CD55_Y245] the enrichment score was inactive: 0.741. TVSSDYLHPQY [CCPG1_Y569_F566S] was tested, and the enrichment score was inactive: 0.621. For PEYVVYKPQME [CCRL2_Y170_F167Y], the enrichment score was inactive: 0.938. With EFGRRYGFSRQ [CCDC93_Y209_YF] the enrichment score was inactive: 0.326. For RVEDAYILTCN [CCT6A_Y229], the enrichment score was inactive: 0.727. RKQQLYTAMEE [CCDC39_Y593] was tested, and the enrichment score was inactive: 0.666. QMEKICTQQIQ [CCNB1IP1_Y125_Y125C] was tested, and the enrichment score was inactive: 0.966. In the case of HTVEDYQAIVD [CCT7_Y263], the enrichment score is reported as inactive: 0.7. With MKSIKYMDKEI [CCDC60_Y41] the enrichment score was inactive: 1.24. With ALETLYKKAVK [CC2D2A_Y381_E376A] the enrichment score was inactive: 0.529. In the case of EQFELHCEMGS [CBL_Y371_Y371H_YF], the enrichment score is reported as inactive: 0.533. In the case of EFGRRYGFSCQ [CCDC93_Y209_R213C_YF], the enrichment score is reported as inactive: 0.571. In the case of KKRSVYLKVLF [CC2D2A_Y683], the enrichment score is reported as inactive: 0.716. In the case of VPLLEYYWDIF [CDAN1_Y712_R714W], the enrichment score is reported as inactive: 3.02.

These binders were tested against SHP2 N-SH2 domain wild-type in the same assay as above. Settings: peptide library: pTyr-Var.
For VPLLEYFWDIF [CDAN1_Y712_R714W_YF], the enrichment score was active: 4.04. With SHLSAYPALEG [CD5_Y465] the enrichment score was inactive: 0.883. VPLLEYYRDIF [CDAN1_Y712] was tested, and the enrichment score was inactive: 1.48. With NELTYYCYKKD [CD59_Y87_C89Y] the enrichment score was inactive: 1.06. For RDHYGYRQSVT [CD55_Y245], the enrichment score was inactive: 0.97. With TVSSDYLHPQY [CCPG1_Y569_F566S] the enrichment score was inactive: 0.635. In the case of PEYVVYKPQME [CCRL2_Y170_F167Y], the enrichment score is reported as inactive: 1.02. For EFGRRYGFSRQ [CCDC93_Y209_YF], the enrichment score was inactive: 0.397. With RVEDAYILTCN [CCT6A_Y229] the enrichment score was inactive: 0.6. RKQQLYTAMEE [CCDC39_Y593] was tested, and the enrichment score was inactive: 0.654. In the case of QMEKICTQQIQ [CCNB1IP1_Y125_Y125C], the enrichment score is reported as inactive: 1.31. For HTVEDYQAIVD [CCT7_Y263], the enrichment score was inactive: 0.798. For MKSIKYMDKEI [CCDC60_Y41], the enrichment score was inactive: 1.07. For ALETLYKKAVK [CC2D2A_Y381_E376A], the enrichment score was inactive: 0.655. In the case of EQFELHCEMGS [CBL_Y371_Y371H_YF], the enrichment score is reported as inactive: 1.15. For EFGRRYGFSCQ [CCDC93_Y209_R213C_YF], the enrichment score was inactive: 0.795. With KKRSVYLKVLF [CC2D2A_Y683] the enrichment score was inactive: 0.885. With VPLLEYYWDIF [CDAN1_Y712_R714W] the enrichment score was inactive: 2.68.
